Data from PMC4336329 (PLoS ONE, 2015).
The whole screen tested about 310,000 compounds, of which about 2,200 (0.71%) showed an effect of 50% or more. Effects have a minus sign here. Some of the results follow.

What follows are molecules tested against human ether-à-go-go-related gene (hERG) potassium channel (human, UniProt Q12809) (assay: primary screen, population patch clamp on CHO cells stably expressing hERG).
Sequence of human ether-à-go-go-related gene (hERG) potassium channel (Q12809 whole entry, looked up): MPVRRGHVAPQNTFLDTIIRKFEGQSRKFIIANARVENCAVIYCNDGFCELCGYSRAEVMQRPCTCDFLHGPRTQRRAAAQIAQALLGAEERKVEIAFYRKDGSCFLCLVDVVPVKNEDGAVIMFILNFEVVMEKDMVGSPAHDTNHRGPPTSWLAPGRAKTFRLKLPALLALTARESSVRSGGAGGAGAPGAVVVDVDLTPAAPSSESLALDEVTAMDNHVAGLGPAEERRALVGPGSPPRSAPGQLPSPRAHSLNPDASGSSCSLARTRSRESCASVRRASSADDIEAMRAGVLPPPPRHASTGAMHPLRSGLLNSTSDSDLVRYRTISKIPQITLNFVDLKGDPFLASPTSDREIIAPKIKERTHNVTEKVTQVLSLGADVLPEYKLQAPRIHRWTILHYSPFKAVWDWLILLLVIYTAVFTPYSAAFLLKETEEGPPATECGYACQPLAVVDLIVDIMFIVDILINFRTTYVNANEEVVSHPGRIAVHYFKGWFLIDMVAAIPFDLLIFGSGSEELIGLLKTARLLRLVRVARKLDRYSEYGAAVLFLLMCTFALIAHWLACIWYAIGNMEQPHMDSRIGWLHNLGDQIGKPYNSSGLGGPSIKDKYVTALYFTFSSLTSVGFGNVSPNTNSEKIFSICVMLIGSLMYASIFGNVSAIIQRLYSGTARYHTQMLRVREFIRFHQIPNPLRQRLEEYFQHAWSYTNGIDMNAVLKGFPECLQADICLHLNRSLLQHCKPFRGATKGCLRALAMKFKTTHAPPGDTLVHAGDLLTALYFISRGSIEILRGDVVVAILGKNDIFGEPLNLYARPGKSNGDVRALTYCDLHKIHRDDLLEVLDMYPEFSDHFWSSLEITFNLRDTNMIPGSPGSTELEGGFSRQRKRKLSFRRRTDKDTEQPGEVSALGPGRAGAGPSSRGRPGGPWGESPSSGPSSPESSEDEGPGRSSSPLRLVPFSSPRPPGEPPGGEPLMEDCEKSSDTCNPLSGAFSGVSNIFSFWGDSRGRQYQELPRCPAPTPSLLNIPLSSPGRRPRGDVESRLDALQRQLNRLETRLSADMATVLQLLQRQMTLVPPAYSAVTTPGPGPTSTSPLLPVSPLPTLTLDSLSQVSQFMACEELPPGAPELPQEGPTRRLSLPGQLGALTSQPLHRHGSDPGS

SMILES	hERG current change (%, negative = inhibition) at 1uM [%]
COc1cccc(C(=O)N2CCN(c3ccc(N4CCOCC4)nn3)CC2)c1	-0.266
CNC(=O)c1cc(C(=O)c2ccc(C(F)(F)F)cc2F)c[nH]1	1.27
COCCOC(=O)c1c(C)oc2ccc(OCc3cc(C(=O)OC)oc3C)cc12	7.41
O=C(COC(=O)c1cc(Br)ccc1O)NNC(=O)c1ccc([N+](=O)[O-])cc1	-6.3
COc1ccc(OC)c(NC2=NC3(CCCCC3)N=C(N)N2)c1	11.1
Cc1ccc2oc(C(=O)N3CCN(Cc4nccn4C)CC3)c(C)c2c1	4.3
Cc1cccc(NCc2ccc(Br)cc2)n1	10.1
COC(=O)[C@@H]1C[C@@H]2CC[C@@H](O)C[C@@H]2N1Cc1ccc(N2CCN(C)CC2)cc1	7.78
O=C(Nc1ccccc1-c1ccccc1)c1cnccn1	-1.32
O=C(O)CCCCCNS(=O)(=O)c1cccc2nsnc12	1.14
O=C(NCCCN1CCN(c2ccccc2F)CC1)Nc1ccc(F)cc1	-47.6
COc1ccc(CC(=O)NCC2CCCN(Cc3cc(OC)cc(OC)c3)C2)cc1 (stereo not drawn)	7.2
Cc1nn(-c2nc3ccccc3s2)c(C)c1Oc1ccccc1O	13.2
COc1ccc(C2C3C(=O)N(N(C)c4ncc(C(F)(F)F)cc4Cl)C(=O)C3ON2C)cc1 (stereo not drawn)	11.8
CCCCCCCCNC(=O)c1cccnc1SCC(=O)Nc1ccc(OC)cc1OC	8.68
COc1ccc(OC)c(CC(=O)N(C)C2CCCN(Cc3ccccc3F)C2)c1 (stereo not drawn)	15.5
Cn1cc(CCNCc2cn[nH]c2-c2ccc(-c3ccccc3)cc2)cn1	-8.02
Cc1ccc(C(=O)O/N=C(\N)c2ccc(C(F)(F)F)cn2)cc1	11.7
O=C1NC(c2ccccc2)=C(c2ccccc2)C1=O	11.4
OCCOCCOc1ccccc1OCCOCCO	17.7
COc1ccc(/C=C/C(=O)OCC(=O)c2c[nH]c3ccccc23)cc1	11.9
COc1ccc(C2CC(C(F)(F)F)n3nc(C(=O)O)cc3N2)cc1 (stereo not drawn)	20
CCOC(=O)CSCc1c(C#N)c2ccccc2n1C	5.91

SMILES	hERG current change (%, negative = inhibition) at 1uM [%]
COc1ccc(OC)c(-c2csc(NC(=O)Cc3ccccc3OC)n2)c1	8.32
O=C1Nc2ccc([N+](=O)[O-])cc2OC1CCN1CCN(Cc2ccccc2)CC1 (stereo not drawn)	1.52
CC(C)COCC(O)CCC(=O)NNC(=S)Nc1ccccc1 (stereo not drawn)	3.87
COc1ccc2c(c1)CCc1c(C(=O)NCc3cccnc3)noc1-2	8.03
COc1ccc(C(C(=O)NC2CCCCC2)N(Cc2ccco2)C(=O)CNC(=O)c2ccco2)cc1 (stereo not drawn)	9.67
COc1ccc(S(=O)(=O)N/N=C/c2ccc(OCCN3CCOCC3)c(OC)c2)cc1	9.9
COc1ccccc1Nc1ccc2nonc2c1[N+](=O)[O-]	10.6
CCCOP(=O)(O)c1c([N+](=O)[O-])cc(C(F)(F)F)cc1[N+](=O)[O-].Cc1ccc(N)cc1	5.33
O=C(N/N=C/c1ccc([N+](=O)[O-])s1)c1ccccc1	1.52
CC1(C)CC(=O)C2=C(C1)N(c1ncn[nH]1)C(N)=C(C#N)C2c1ccccc1 (stereo not drawn)	2.77
Cc1ccc(C(=O)N/C(=C\c2ccc(Cl)cc2)C(=O)NCC2CCCO2)cc1 (stereo not drawn)	-38.7
N#Cc1cc2c(nc1SCc1ccccc1)CCCC2	11
O=C1c2ccccc2NC(c2ccccc2Cl)N1N=C1CCCCCC1 (stereo not drawn)	-1.39
NC(=O)c1ccc(NC(=O)COc2ccc([N+](=O)[O-])cc2Cl)cc1	7.77
COc1ccc(Cl)cc1Nc1nc(C)nc2c1oc1ccccc12.Cl	23.3
O=C(Nc1cccc([N+](=O)[O-])c1)N1CCCc2ccccc21	13.2
Cc1cc(C)nc(SCC(=O)N/N=C/c2cccn2-c2ccc(O)cc2)n1	7.15
CN(C)c1cccc(NC(=O)Cc2ccc(F)cc2)c1	12.6
COc1ccc(-c2cc(C(F)(F)F)n3nc(C(=O)NCCCN4CCOCC4)cc3n2)cc1	10.7
O=C(/C=C/c1ccco1)NC(=S)N1CCCCC1	13.5
CCCC1c2ccc(C)n2CCN1C(=O)Nc1ccccc1Cl (stereo not drawn)	14.1
O=C(Nc1cccc(Cl)c1)c1ccc(NCCCN2CCOCC2)c([N+](=O)[O-])c1	-8.94
COc1cc(C(=O)NCCOc2ccccc2C)c(Br)c(OC)c1OC	-1.32

SMILES	hERG current change (%, negative = inhibition) at 1uM [%]
CCC(C)NCCCCOc1cc(C)cc(C(C)C)c1 (stereo not drawn)	2.66
Cc1cccc(NC(=O)CNc2cc(C)ccc2C)c1	-13.4
Cc1ccc(NC2=CC(=O)CC(C)(C)C2)cc1C	11.1
O=C(NCc1cccnc1)Nc1cccc([N+](=O)[O-])c1	8.57
CC(c1ccon1)N(C)C(=O)CCc1nnc(Cc2ccc(-c3ccccc3)cc2)o1 (stereo not drawn)	0.227
CCN1C(=O)[C@H]2[C@@H](c3ccc(C)cc3)N3C(=O)N(c4ccc(C(F)(F)F)cc4)C(=O)[C@@]3(CC(C)C)[C@H]2C1=O	14.4
O=C(COC(=O)c1cnccn1)NCc1ccc(Cl)cc1	6.35
C=CCOc1ccc(/C(O)=C2/C(=O)C(=O)N(CCCN3CCOCC3)C2c2ccccc2)cc1 (stereo not drawn)	15
CC(C)(C)NC(=S)Nc1cccc(C(F)(F)F)c1	14.5
O=C1NC[C@@H](Cc2cccc3ccccc23)N(CC2(c3ccccc3)CC2)C1=O	12.5
COC(=O)c1ccc2ccn(CC(=O)NC(C)C)c2c1	8.71
Cc1ccccc1N1C(=O)C2C3CCC(O3)C2C1=O (stereo not drawn)	14.2
Cc1cc(C)n(CCNC(=O)C2CCC(=O)N(Cc3ccc(Cl)cc3)C2)n1 (stereo not drawn)	13.2
CC(C)COc1ccc2[nH]c3c(c2c1)CCCC3=O	11.6
CCc1cc2c(COC(=O)c3cccc(NS(C)(=O)=O)c3)cc(=O)oc2cc1O	13.2
CCCC[C@H]1COCCS(=O)(=O)N1Cc1ccc(Br)cc1	-4.77
COc1ccc(CNC2CCCC2)c(OC)c1OC	10.2
CCc1ccccc1NC(=O)Cc1cn(C)c2ccccc12	6.07
Cc1ccc(NC(=S)NCCCN2CCOCC2)cc1	14.9
COc1ccc(NC(=S)NCc2cccnc2)cc1OC	0.51
CC(=O)OCCN1CCN(C(=O)CN2C(=O)NC(c3ccccc3)(c3ccccc3)C2=O)CC1	11.1
Br.COc1cccc(CNCC2CCCO2)c1 (stereo not drawn)	13.8
Cc1cc(C)cc(NC(=O)C(=S)NCc2ccccc2)c1	14.6

SMILES	hERG current change (%, negative = inhibition) at 1uM [%]
COc1cccc(C(=O)COC(=O)COc2c(C)cc(C)cc2C)c1	9.08
CC(=O)N1CCN(S(=O)(=O)c2cccc(C(=O)Nc3nc4c(s3)CCCC4)c2)CC1	-6.41
O=C(CSc1nnc2ccc(-c3ccncc3)nn12)c1cccs1	-0.233
CCN(Cc1ccccc1)C(c1cc2cc(C)cc(C)c2[nH]c1=O)c1nnnn1CCOC (stereo not drawn)	8.47
C/C(=N\OCC(=O)N/N=C/c1ccccc1O)c1cccs1	12.4
CC1CCCCN1C(=O)COC(=O)/C=C/c1ccc2ccccc2n1 (stereo not drawn)	18.9
O=C(NN=C1CCCCCCCCCCC1)c1ccncc1	2.8
COc1ccc(/C=N/NC(=O)c2cnccn2)c(OC)c1OC	11.8
CCOCCCNC(=O)C(c1ccc(Cl)cc1)N1CCC2(CC1)OCCO2 (stereo not drawn)	10.3
COc1ccc(NCc2nnc(SCC(=O)c3ccc(OC)cc3)o2)cc1	5.43
O=C(O)CSCC(=O)Nc1cc(C(F)(F)F)ccc1Cl	12.5
COc1ccc2nc(-c3ccccc3)nc(C3CCCCC3)c2c1	8.12
N#CCc1ccc(C(=O)c2ccccc2F)s1	10.5
O=C(Cn1cnc2ccccc21)Nc1ccccc1-c1ccccc1	9.11
O=C(c1ccc2c(c1)OCO2)N1CCc2ccccc21	11.5
CCCn1c(C)cc(C(=O)CN2C(=O)c3ccccc3C2=O)c1C	8.95
O=C(COc1ccc(Cl)cc1)Nc1nnc(-c2ccco2)o1	5.34
O=C(NCCCO)c1cc2c([nH]c3ccccc32)c(-c2ccc(F)cc2)n1	-6.71
Cc1oc(-c2cccs2)nc1CN1CC[C@@](O)(c2ccccc2)[C@H]2CCCC[C@@H]21	18.4
O=C(c1ccccn1)N1CCCC(N2CCN(c3ccc(F)cc3)CC2)C1 (stereo not drawn)	7.92
CC(=O)NC(=S)Nc1cccc(S(=O)(=O)NC2=NCCC2)c1	-2.32
